# In ChEMBL document CHEMBL4888484, “Replenishing the malaria drug discovery pipeline: Screening and hit evaluation of the MMV Hit Generation Library 1 (HGL1) against asexual blood stage Plasmodium falciparum ,using a nano luciferase reporter read-out” (2022):
# Hit rate of the full screen: of about 150,000 compounds, about 540 (0.36%) showed an effect of 50% or more. The list shows a part of the results.
# Tested on: Plasmodium falciparum
# Experiment: Primary screen in NF54 nanoGlo assay, in single point, at 2uM, 72h; a lower Z score goes with more inhibition
# Format: functional, Erythrocyte
# Conditions: timepoint 72 hour
Compound,% Inhibition [%],Z score
C#CCN(C)CC[C@@H]1CC[C@H](O)[C@@H](C(=O)N(C)Cc2ccccc2)O1,1,-0.1
CCCN1CCCN(C2CCN(c3ccc(-n4cccn4)cc3)CC2)CC1,-8,1.04
CCOC1CC(NC(=O)c2nnc(C)s2)C12CCCO2 (stereo not drawn),-16,2.06
O=C(O)c1csc(NC(=O)C2CCC=CCC2)c1,3,-0.41
Cc1sc(C=Cc2cn(C)nc2C(F)F)nc1C(=O)O,-6,0.56
COC[C@@]1(C)CCN(Cc2csc(N(C)C3CC3)n2)C1,0,-0.04
Cc1[nH]c(=O)c(C(=O)NCCCN(C)c2ccccc2)c(C)c1C,-4,0.74
O=C(NCCc1c[nH]c2cc(F)c(Cl)cc12)[C@H]1CC1(F)F,2,-0.36
CCOC(=O)N(C)CC(=O)Nc1ncc(C)s1,16,-2.04
C[C@@H](c1cccnc1)N(C)Cc1cc(CN2CCCC2)cs1,-7,0.82
COc1ccnc(CN2CCC3(CCC(=O)N(CCc4ccccc4)C3)CC2)c1,0,0
CN(C)C(=O)c1ccc(N2C[C@@H](C(F)(F)F)OC(C)(C)C2)nc1,10,-1.29
CS(=O)(=O)NC1(c2ccc(F)cc2)CC1,-11,2.11
CCN(CC)c1ccc(C(=O)NC(c2ccccc2)c2ccccc2)cc1,-2,0.22
CCN(Cc1cc(=O)c2cc(C)cc(C)c2[nH]1)[C@H]1CCS(=O)(=O)C1,-16,3.14
Cc1cc(C(=O)N2CCC(=C3CCC3)CC2)nn1C,-24,3.68
CCCN1CCN(C(=O)c2c(C)nn(CC)c2C)[C@H]2CS(=O)(=O)C[C@H]21,-6,0.82
CC1(C)CC(NC(=O)N[C@@H](Cc2ccc(O)cc2)C(N)=O)CC(C)(C)C1,1,-0.17
O=c1[nH]cnc2c1c(-c1ccccc1)c(-c1ccccc1)n2C[C@H]1CCCO1,-2,0.2
COc1ccc(Cl)cc1-c1c(N2CCCC2)cn[nH]c1=O,1,-0.09
COc1ccnc(N(C)CC2CCN(CCO)CC2)n1,4,-0.35
COCC(=O)N(CCN1CCOCC1)CC(=O)N1N=C(c2ccc(OC)cc2)C[C@H]1c1ccc2c(c1)OCO2,-13,1.78
O=C(NC[C@@]1(COc2cccnc2)C[C@@H](O)[C@@H](O)C1)C1CCOCC1,-10,1.98
C=CCNc1nc2cc3c(cc2nc1NS(=O)(=O)c1ccccc1)OCCO3,-2,0.38
COc1ccc(N2CCN(C(=O)CCc3c(C)nn4cnnc4c3C)CC2)cc1,-14,1.45
CCc1noc(C)c1Cn1cnc(C(C)(C)C)n1,-6,0.83
Cc1ccc(CNC2=NCCCNC23CCCCC3)cc1,7,-0.96

Compound,% Inhibition [%],Z score
C=CCNC(=O)c1cccn(-c2ccc(NC(=O)c3ccc(F)cc3)cc2)c1=O,-11,1.45
NC(=O)OCCOC(=O)c1ccc(Cl)cc1F,-3,0.53
Cc1ccc(S(=O)(=O)Nc2nc(-c3ccccc3)cc(-c3cc(Cl)ccc3O)n2)cc1,-24,2.77
CN(Cc1cc(C2CC2)on1)C(=O)NCCC1=CC[C@H]2C[C@@H]1C2(C)C,-19,3.26
COCCN(Cc1ccc(C)s1)C(=O)N[C@@H](C)Cc1ccccn1,0,0.08
CCONC(=O)N[C@@H](C1CCCC1)C(F)(F)F,9,-1.27
O=C(Nc1cccc(-n2cnnc2)c1)C(=O)N[C@H](CO)Cc1ccccc1,-5,0.79
C[C@H](NC(=O)c1cccn1C)c1n[nH]c(=O)n1C,4,-0.83
CC1(C)OC[C@H](C(O)CNc2ccncc2C(F)(F)F)O1 (stereo partly drawn),3,-0.54
CCC(C)(CCO)NC(=O)NCC(C)c1ccsc1 (stereo not drawn),-2,0.32
Fc1cc(Cl)ccc1CNCCc1cnccn1,-5,0.7
CC(C)c1ocnc1C(=O)N[C@H]1CCO[C@@H]1c1cnn(CC2CC2)c1,0,-0.03
Cc1cc(-c2ccc(C)c(S(=O)(=O)CCC(=O)Nc3cccc(Cl)c3)c2)on1,-7,0.98
CN(C)Cc1cc(C[C@@H]2C[C@H](NCc3ccccc3)C2(C)C)no1,-11,1.64
COc1cccc(-c2nnc(-c3cnccn3)[nH]2)c1,-13,1.5
Cc1cc(C(=O)N2C[C@@H]3CC[C@H]2CN(Cc2ccccn2)C3)c(C)o1,-3,0.56
Nc1nc(-c2cccc(C(=O)N[C@H]3CCOC3)c2)cc(N2CCCC2)n1,-12,1.89
C=C(C)COc1ccccc1CNCCc1[nH]nc2c1CCCC2,0,-0.04
Cc1c[nH]c(CN(C)Cc2cc(Cl)ccc2OCC(N)=O)n1,-6,1.17
Cc1[nH]c(=O)c(C(=O)NC[C@H]2CCCO2)cc1-c1ccccc1,-3,0.67
Cc1ccc(CC2CN(C(=O)NCc3cnc(C)o3)C2)cc1,11,-1.3
CC(=O)c1cccc(NC(=O)N2CCCCCCC2)c1,2,-0.33
Cc1cc(C)cc([C@H](C)NC(=O)NCc2cnn(C)c2)c1,-1,0.1
CCOC(=O)c1ccc(C(=O)O[C@@H](CC(C)C)C(=O)OC)nc1C,-10,1
O=C1CCCCN1CCCNS(=O)(=O)C1CCC(C(F)(F)F)CC1 (stereo not drawn),-3,0.54
Cc1cccnc1CCNC(=O)N(C)[C@@H](C)c1ccncn1,-6,1.12
CC(C)[C@H](NC(=O)c1ccccc1-c1ccccc1)c1ncnn1C,-4,0.63
